This assay relates to patients with moderate to severe active rheumatoid arthritis. Description: HAQ-disability index (HAQ-DI), clinical study. The conditions noted are these: for HAQ-DI CFB, Mean (SD): change from baseline; for % patients at week 12, CID: ≥-0.68 / % patients at week 12, MCID: ≥-0.22 / % patients at week 12, Normative (≤0.25) / % patients at week 12, Remission (≤0.5): HAQ-DI.

Marks after values point to notes of the source that are not given here.

In the case of `C[C@]1(O)CC[C@H](NS(=O)(=O)c2ccc(-c3ccc(Cl)cc3C#N)cc2)CC1` [HMC-C-01-A], where the note is “5 mg once daily”, the “HAQ-DI CFB, Mean (SD)” value is on record as -0.6 (0.5)*; the “% patients at week 12, CID: ≥-0.68” value is on record as 33.4%; the “% patients at week 12, MCID: ≥-0.22” value was determined as 78.2%; the “% patients at week 12, Normative (≤0.25)” value is on record as 14.3%. Besides, where the note is “5 mg once daily”, the “% patients at week 12, Remission (≤0.5)” value is 22.6%. Where the note is “20 mg once daily”, the “HAQ-DI CFB, Mean (SD)” value is -0.4 (0.6); the “% patients at week 12, CID: ≥-0.68” value is 24.5%; the “% patients at week 12, MCID: ≥-0.22” value is given as 59.2%; the “% patients at week 12, Normative (≤0.25)” value is on record as 8.9%. Where the note is “20 mg once daily”, the “% patients at week 12, Remission (≤0.5)” value is on record as 14.5%. For the setting “40 mg once daily”, the “HAQ-DI CFB, Mean (SD)” value is -0.6 (0.7)^a; the “% patients at week 12, CID: ≥-0.68” value was found to be 39.7%; the “% patients at week 12, MCID: ≥-0.22” value is on record as 67.9%; the “% patients at week 12, Normative (≤0.25)” value came out at 18.2%. In addition, where the note is “40 mg once daily”, the “% patients at week 12, Remission (≤0.5)” value was determined as 28.8%.
